Values belong to the binder of their own block, whether it stands above or below them.
Target: T1, IL-2Rα-hFc
T1 construct: Whole entry as expressed; also called immobilized IL-2Rα; extracellular region of the IL2 receptor IL-2Rα
Experiment: BLI, immobilized IL-2Rα-hFc

binding result: binds
B1: A2M-IL2, untreated (native conformation) (other)
chain: SVSGKPQYMVLVPSLLHTETTEKGCVLLSYLNETVTVSASLESVRGNRSLFTDLEAENDVLHCVAFAVPKSSSNEEVMFLTVQVKGPTQEFKKRTTVMVKNEDSLVFVQTDKSIYKPGQTVKFRVVSMDENFHPLNELIPLVYIQDPKGNRIAQWQSFQLEGGLKQFSFPLSSEPFQGSYKVVVQKKSGGRTEHPFTVEEFVLPKFEVQVTVPKIITILEEEMNVSVCGLYTYGKPVPGHVTVSICRKYSDASDCHGEDSQAFCEKFSGQLNSHGCFYQQVKTKVFQLKRKEYEMKLHTEAQIQEEGTVVELTGRQSSEITRTITKLSFVKVDSHFRQGIPFFGQVRLVDGKGVPIPNKVIFIRGNEANYYSNATTDEHGLVQFSINTTNVMGTSLTVRVNYKDRSPCYGYQWVSEEHEEAHHTAYLVFSPSKSFVHLEPMSHELPCGHTQTVQAHYILNGGTLLGLKKLSFYYLIMAKGGIVRTGTHGLLVKQEDMKGHFSISIPVKSDIAPVARLLIYAVLPTGDVIGDSAKYDVENCLANKVDLSFSPSQSLPASHAHLRVTAAPQSVCALRAVDQSVLLMKPDAELSASSVYNLLPEKDLTGFPGPLNDQDDEDCINRHNVYINGITYTPVSSTNEKDMYSFLEDMGLKAFTNSKIRKPKMCPQLQQYEMHGPEGLRVGFYESDVMGRGHARLVHVEEPHTETVRKYFPETWIWDLVVVNSAGVAEVGVTVPDTITEWKAGAFCLSEDAGLGISSTASLRAFQPFFVELTMPYSVIRGEAFTLKATVLNYLPKCIRVSVQLEASPAFLAVPVEKEQAPHCICANGRQTVSWAVTPKSLGNVNFTVSAEALESQELCGTEVPSVPEHGRKDTVIKPLLVEPEGLEKETTFNSLLCPSGGEVSEELSLKLPPNVVEESARASVSVLGDILGSAMQNTQNLLQMPYGCGEQNMVLFAPNIYVLDYLNETQQLTPEVKSKAIGYLNTGYQRQLNYKHYDGSYSTFGERYGRNQGNTWLTAFVLKTFAQARAYIFIDEAHITQALIWLSQRQKDNGCFRSSGSLLNNAIKGGVEDEVTLSAYITIALLEIPLTVTHPVVRNALFCLESAWKTAQEGDHGSHVYTKALLAYAFALAGNQDKRKEVLKSLNEEAVKKDNSVHWERPQKPKAPVGHFYEPQAPSAEVEMTSYVLLAYLTAQPAPTSEDLTSATNIVKWITKQQNAQGGFSSTQDTVVALHALSKYGAATFTRTGKAAQVTIQSSGTFSSKFQVDNNNRLLLQQVSLPELPGEYSMKVTGEGCVYLQTSLKYNILPEKEEFPFALGVQTLPQTCDEPKAHTSFQISLSVSYTGSRSASNMAIVDVKMVSGFIPLKPTVKMLERSGSGGSGGSGGSGGSGGS[in this place about 150 residues]GSSGGSGGSGGSGGSNHVSRTEVSSNHVLIYLDKVSNQTLSLFFTVLQDVPVRDLKPAIVKVYDYYETDEFAIAEYNAPCSKDLGNA
notes: A2M with wildtype human IL2 ([…], […]) inserted in the ciRBD position; untreated sample; also called A2M ciRBD IL2; control sample

binding result: binds
B2: A2M-IL2, thermolysin-treated (other)
chain: SVSGKPQYMVLVPSLLHTETTEKGCVLLSYLNETVTVSASLESVRGNRSLFTDLEAENDVLHCVAFAVPKSSSNEEVMFLTVQVKGPTQEFKKRTTVMVKNEDSLVFVQTDKSIYKPGQTVKFRVVSMDENFHPLNELIPLVYIQDPKGNRIAQWQSFQLEGGLKQFSFPLSSEPFQGSYKVVVQKKSGGRTEHPFTVEEFVLPKFEVQVTVPKIITILEEEMNVSVCGLYTYGKPVPGHVTVSICRKYSDASDCHGEDSQAFCEKFSGQLNSHGCFYQQVKTKVFQLKRKEYEMKLHTEAQIQEEGTVVELTGRQSSEITRTITKLSFVKVDSHFRQGIPFFGQVRLVDGKGVPIPNKVIFIRGNEANYYSNATTDEHGLVQFSINTTNVMGTSLTVRVNYKDRSPCYGYQWVSEEHEEAHHTAYLVFSPSKSFVHLEPMSHELPCGHTQTVQAHYILNGGTLLGLKKLSFYYLIMAKGGIVRTGTHGLLVKQEDMKGHFSISIPVKSDIAPVARLLIYAVLPTGDVIGDSAKYDVENCLANKVDLSFSPSQSLPASHAHLRVTAAPQSVCALRAVDQSVLLMKPDAELSASSVYNLLPEKDLTGFPGPLNDQDDEDCINRHNVYINGITYTPVSSTNEKDMYSFLEDMGLKAFTNSKIRKPKMCPQLQQYEMHGPEGLRVGFYESDVMGRGHARLVHVEEPHTETVRKYFPETWIWDLVVVNSAGVAEVGVTVPDTITEWKAGAFCLSEDAGLGISSTASLRAFQPFFVELTMPYSVIRGEAFTLKATVLNYLPKCIRVSVQLEASPAFLAVPVEKEQAPHCICANGRQTVSWAVTPKSLGNVNFTVSAEALESQELCGTEVPSVPEHGRKDTVIKPLLVEPEGLEKETTFNSLLCPSGGEVSEELSLKLPPNVVEESARASVSVLGDILGSAMQNTQNLLQMPYGCGEQNMVLFAPNIYVLDYLNETQQLTPEVKSKAIGYLNTGYQRQLNYKHYDGSYSTFGERYGRNQGNTWLTAFVLKTFAQARAYIFIDEAHITQALIWLSQRQKDNGCFRSSGSLLNNAIKGGVEDEVTLSAYITIALLEIPLTVTHPVVRNALFCLESAWKTAQEGDHGSHVYTKALLAYAFALAGNQDKRKEVLKSLNEEAVKKDNSVHWERPQKPKAPVGHFYEPQAPSAEVEMTSYVLLAYLTAQPAPTSEDLTSATNIVKWITKQQNAQGGFSSTQDTVVALHALSKYGAATFTRTGKAAQVTIQSSGTFSSKFQVDNNNRLLLQQVSLPELPGEYSMKVTGEGCVYLQTSLKYNILPEKEEFPFALGVQTLPQTCDEPKAHTSFQISLSVSYTGSRSASNMAIVDVKMVSGFIPLKPTVKMLERSGSGGSGGSGGSGGSGGS[in this place about 150 residues]GSSGGSGGSGGSGGSNHVSRTEVSSNHVLIYLDKVSNQTLSLFFTVLQDVPVRDLKPAIVKVYDYYETDEFAIAEYNAPCSKDLGNA
notes: Same chain after thermolysin cleavage of the bait region; also called A2M ciRBD IL2

fold increase of the degree of binding (by kobs values) against A2M-IL2 in its native conformation: ~10 fold
B3: A2M-IL2, methylamine-treated (other)
chain: SVSGKPQYMVLVPSLLHTETTEKGCVLLSYLNETVTVSASLESVRGNRSLFTDLEAENDVLHCVAFAVPKSSSNEEVMFLTVQVKGPTQEFKKRTTVMVKNEDSLVFVQTDKSIYKPGQTVKFRVVSMDENFHPLNELIPLVYIQDPKGNRIAQWQSFQLEGGLKQFSFPLSSEPFQGSYKVVVQKKSGGRTEHPFTVEEFVLPKFEVQVTVPKIITILEEEMNVSVCGLYTYGKPVPGHVTVSICRKYSDASDCHGEDSQAFCEKFSGQLNSHGCFYQQVKTKVFQLKRKEYEMKLHTEAQIQEEGTVVELTGRQSSEITRTITKLSFVKVDSHFRQGIPFFGQVRLVDGKGVPIPNKVIFIRGNEANYYSNATTDEHGLVQFSINTTNVMGTSLTVRVNYKDRSPCYGYQWVSEEHEEAHHTAYLVFSPSKSFVHLEPMSHELPCGHTQTVQAHYILNGGTLLGLKKLSFYYLIMAKGGIVRTGTHGLLVKQEDMKGHFSISIPVKSDIAPVARLLIYAVLPTGDVIGDSAKYDVENCLANKVDLSFSPSQSLPASHAHLRVTAAPQSVCALRAVDQSVLLMKPDAELSASSVYNLLPEKDLTGFPGPLNDQDDEDCINRHNVYINGITYTPVSSTNEKDMYSFLEDMGLKAFTNSKIRKPKMCPQLQQYEMHGPEGLRVGFYESDVMGRGHARLVHVEEPHTETVRKYFPETWIWDLVVVNSAGVAEVGVTVPDTITEWKAGAFCLSEDAGLGISSTASLRAFQPFFVELTMPYSVIRGEAFTLKATVLNYLPKCIRVSVQLEASPAFLAVPVEKEQAPHCICANGRQTVSWAVTPKSLGNVNFTVSAEALESQELCGTEVPSVPEHGRKDTVIKPLLVEPEGLEKETTFNSLLCPSGGEVSEELSLKLPPNVVEESARASVSVLGDILGSAMQNTQNLLQMPYGCGEQNMVLFAPNIYVLDYLNETQQLTPEVKSKAIGYLNTGYQRQLNYKHYDGSYSTFGERYGRNQGNTWLTAFVLKTFAQARAYIFIDEAHITQALIWLSQRQKDNGCFRSSGSLLNNAIKGGVEDEVTLSAYITIALLEIPLTVTHPVVRNALFCLESAWKTAQEGDHGSHVYTKALLAYAFALAGNQDKRKEVLKSLNEEAVKKDNSVHWERPQKPKAPVGHFYEPQAPSAEVEMTSYVLLAYLTAQPAPTSEDLTSATNIVKWITKQQNAQGGFSSTQDTVVALHALSKYGAATFTRTGKAAQVTIQSSGTFSSKFQVDNNNRLLLQQVSLPELPGEYSMKVTGEGCVYLQTSLKYNILPEKEEFPFALGVQTLPQTCDEPKAHTSFQISLSVSYTGSRSASNMAIVDVKMVSGFIPLKPTVKMLERSGSGGSGGSGGSGGSGGS[in this place about 150 residues]GSSGGSGGSGGSGGSNHVSRTEVSSNHVLIYLDKVSNQTLSLFFTVLQDVPVRDLKPAIVKVYDYYETDEFAIAEYNAPCSKDLGNA
modifications: thiol ester aminolysed with methylamine (position not given)
notes: Same chain after methylamine treatment; also called A2M ciRBD IL2
